Data reported in ChEMBL document CHEMBL4888484, “Replenishing the malaria drug discovery pipeline: Screening and hit evaluation of the MMV Hit Generation Library 1 (HGL1) against asexual blood stage Plasmodium falciparum ,using a nano luciferase reporter read-out” (2022).
About 540 (0.36%) of roughly 150,000 compounds showed an effect of 50% or more. Some of the results follow.

What follows are compounds tested on Plasmodium falciparum (assay: Primary screen in NF54 nanoGlo assay, in single point, at 2uM, 72h; a lower Z score goes with more inhibition). Details: timepoint 72 hour.
Assay type: functional, Erythrocyte

| Structure (SMILES) | % Inhibition | Z score |
| --- | --- | --- |
| CCC(=O)N1CCc2sc(C(=O)N3CCN(c4ccccc4F)CC3)cc2C1 | -10% | 1.57 |
| CCC1CN(C(=O)C2CC2c2cccc(OC)c2)CC1N(C)C (stereo unspecified) | 8% | -0.97 |
| COc1ccccc1NC(=O)c1c(C)n[nH]c1NCc1ccnn1CC(C)C | -11% | 1.48 |
| Cc1ccc(NC(=O)C2C3C=CC4(CNC(=O)C(c5ccc(C)cc5)N(Cc5ccccc5F)C(=O)C24)O3)cc1 (stereo unspecified) | -2% | 0.38 |
| CN(Cc1nccn1C)C(=O)c1ccc(Oc2ccccc2)o1 | 14% | -1.62 |
| CCc1nnsc1C(=O)NC(C)C1CCCO1 (stereo unspecified) | -7% | 1.32 |
| Cc1ccc(N[C@@](C)(C(=O)NCc2c(C)n[nH]c2C)c2ccccc2)cc1 | 6% | -1.08 |
| COc1ccc(NC(=O)C2CC(c3ccc(F)c(C)c3)CN(Cc3ccccc3Cl)C2)c(OC)c1 (stereo unspecified) | -3% | 0.64 |
| CN(C)c1nc2c(c(=O)[nH]c(=O)n2C)n1CCc1ccccc1 | -7% | 1.4 |
| OC12CCCCC1[C@H](c1ccc(Cl)cc1Cl)NCC2 (stereo partly specified) | -3% | 0.38 |
| CN1CCCCC[C@H]1C(=O)NC1CCN(S(=O)(=O)c2ccccc2)CC1 | -23% | 2.18 |
| Cc1c(C(=O)N(CCN(C)C)C2CC2)oc2c(Cl)cccc12 | -8% | 0.85 |
| CN(C)c1ncc(CN[C@@H]2CCCC[C@H]2S(C)(=O)=O)n1C | -7% | 0.84 |
| CCc1ncoc1C(=O)N[C@H]1CCc2c1ccc(Cl)c2Cl | -7% | 0.98 |
| COc1ccc(Nc2nc(C)c(NC(=O)c3ccc(F)cc3)c(Nc3ccc(OC)cc3)n2)cc1 | 7% | -1.37 |
| COCC(=O)N1CCCN(C(=O)c2ccc(-c3cc(N)ncn3)cc2)CC1 | -11% | 2.2 |
| CN(CCc1ncon1)C(=O)[C@H]1C[C@@H]1c1ccccc1 | -16% | 3.07 |
| Cc1nnc(NCCn2cncc2-c2ccccc2)nc1C | 5% | -1.05 |
| NC(=O)C1CCN(Cc2cc(Cl)c3c(c2)OCCCO3)CC1 | -5% | 0.66 |
| Cc1cc(NC(=O)NCCCN2CCCCC2)no1 | -5% | 0.72 |
| Fc1cccc(CNc2nnc([C@@H]3Cc4ccccc4O3)o2)c1 | -6% | 0.82 |

| Structure (SMILES) | % Inhibition | Z score |
| --- | --- | --- |
| CC1CCN(c2ccc(C(=O)NCCCN3CCCC3=O)cc2NS(=O)(=O)c2ccc(Br)cc2)CC1 | -1% | 0.11 |
| COc1cc(-c2cc(C(=O)N(CCc3ccccc3)CCc3ccccc3)c3ccccc3n2)cc(OC)c1OC | -2% | 0.31 |
| Cc1nc(CC[C@H]2CCN(C(=O)c3noc(C)c3Cn3cccn3)C2)no1 | -2% | 0.31 |
| O=C1CN(c2ccc(NC(=O)c3cnc4ccccc4n3)cn2)CCN1 | -14% | 2.68 |
| CN(C)C(=O)[C@]12CN(Cc3ccccc3)C[C@H]1CN(C(=O)Cc1cccs1)C2 | -19% | 2.55 |
| O=C(Cc1ccccc1F)N1CC[C@H](Oc2cccc(F)c2)C1 | -12% | 1.42 |
| COc1ccc(N(C)C)cc1S(=O)(=O)N1CCCCC1 | -17% | 1.54 |
| COCCCNC(=O)N1CCOCC1 | -5% | 0.65 |
| C[C@@H](C(=O)N(C)CCC#N)N1CCC(CN2CCCCC2=O)CC1 | -5% | 0.71 |
| CNC(=O)c1cc2c(s1)CCN(C(=O)c1cc(C)n3nc(C)cc3n1)C2 | -6% | 1.09 |
| CC(C)(C)C(=O)NCCn1nc(C2CC2)cc1C1CC1 | -3% | 0.35 |
| Cc1cccn2c(CNCCc3ccccn3)c(C(=O)N3CCOCC3)nc12 | -4% | 0.84 |
| O=C(C1c2ccccc2Oc2ccccc21)N1Cc2cncnc2C1 | -5% | 0.85 |
| Cc1cc(CN(C)S(=O)(=O)c2ccc(-c3cc(C(F)(F)F)[nH]n3)o2)no1 | 1% | -0.11 |
| CC(=O)Nc1ccc(Br)c(C)c1F | -18% | 2.61 |
| O=C(NCCC(=O)N1CC[C@H](n2cccn2)C1)C1CCCCC1 | -13% | 1.28 |
| COc1ccc(-c2cc(C(=O)NCc3ccccc3)c3c(-c4ccc(C)cc4)[nH]nc3n2)cc1OC | -11% | 1.02 |
| CCCC[C@H](O)CN(Cc1ccco1)Cc1c(C)nn(-c2ccccc2)c1Oc1ccc(C)cc1 | 2% | -0.42 |
| CCN1C[C@@H](CN(C)S(=O)(=O)Cc2cc(F)ccc2Cl)CC1=O | -13% | 1.7 |
| O=C(Nc1ccc(N2CCc3sccc3C2)nc1)c1ccc[n+]([O-])c1 | -19% | 2.55 |
| CCC(=O)N1CCc2cc(CNS(=O)(=O)c3ccc(F)cc3)ccc21 | -11% | 1.33 |

| Structure (SMILES) | % Inhibition | Z score |
| --- | --- | --- |
| CCN1CCCN(C(=O)CC2CCCCC2)CC12CCOCC2 | -9% | 1.09 |
| NNC1=NC2(CCCCC2)Cc2ccccc21 | -12% | 1.98 |
| CC(C)(C)[C@H](NS(C)(=O)=O)C(=O)NC1CCCC1 | 8% | -0.88 |
| CN(Cc1cscn1)C(=O)Nc1ncc(C(C)(C)C)s1 | 0% | 0.04 |
| c1ccc(Cn2nncc2CN2CCCc3occc3C2)cc1 | -11% | 1.39 |
| Cc1cc(O)n2nc(N(C)C(=O)C(=O)N3CCN(C)CC3)c(S(=O)(=O)c3ccccc3)c2n1 | 30% | -1.91 |
| Cc1ccc([C@@H]2CCCN2C(=O)Nc2ccncc2)cc1 | -6% | 0.82 |
| CN(Cc1nccs1)C(=O)c1cc(NCc2cc3ccccc3s2)cc(S(=O)(=O)N(C)C)c1 | -18% | 2.1 |
| CCc1cccc(C)c1NC(=O)N1CC(=O)N2CCc3cc(OC)c(OC)cc3[C@@H]2C1 | -11% | 1.49 |
| Cc1nc(-c2cccs2)sc1CNC(=O)c1ccc(-n2cccn2)nn1 | -10% | 1.86 |
| COCCN(C)Cc1ccc(CC2CCN(C(=O)c3n[nH]c4ccccc34)CC2)cc1 | -10% | 1.83 |
| NS(=O)(=O)C[C@H]1CCN(C(=O)c2scc3c2CCCC3)C1 | -6% | 0.95 |
| CCCN(CCC)C(=O)c1cc(F)ccc1OC | -10% | 1.09 |
| COC[C@H]1C[C@@H](NC(=O)c2ccc(C#N)cc2)[C@H](O)[C@@H]1O | 6% | -0.76 |
| OCCC[C@@H]1CN(Cc2cnn(-c3cccc(F)c3)c2)CC[C@@H]1N1CCOCC1 | 11% | -1.41 |
| O=C1CC(C(=O)N2CCC3(CCCCCC3)C2)C1 | 9% | -1.56 |
| CCCOc1cc(C)c2c(c1C)C[C@H]([C@H](C)C(=O)NCCO)CC2 | 25% | -2.87 |
| COc1ccc(C(=O)N2c3ccccc3N=C(c3ccccc3)C[C@H]2c2ccccc2)cc1 | -2% | 0.19 |
| Cc1cc(NC(=O)N[C@@](C)(CO)C2CCCCC2)no1 | 11% | -1.48 |
| Cc1c(C(F)(F)F)nn(C)c1NC(=O)[C@H]1OCCO[C@H]1C | -8% | 1.15 |
| CCC1CN2CCCC2CN1Cc1ccc(OC(F)F)cc1 (stereo unspecified) | 1% | -0.12 |

| Structure (SMILES) | % Inhibition | Z score |
| --- | --- | --- |
| Cc1ccc(F)c(C(=O)N[C@H]2CCN(c3cc(=O)[nH]cn3)C2)c1F | -2% | 0.26 |
| CCC(=O)N1CC[C@H](NC(=O)N(C)c2ccc(F)cc2)C1 | 1% | -0.09 |
| C[C@H]1OCCN(C(=O)OC(C)(C)C)[C@@H]1C(=O)N(C)Cc1ccccn1 | -1% | 0.1 |
| CCOCCCNC(=O)C(=O)NCc1ccc(C)cc1 | -8% | 1.11 |
| Cc1cc(NCc2ccc(S(=O)(=O)N3CCCC3)cc2)nc(N)n1 | -1% | 0.23 |
| Cc1nonc1CN(C)Cc1cc(-c2ccc3c(c2)OCO3)ccc1OCC(=O)N1CCN(c2ccccc2F)CC1 | -11% | 1.23 |
| COCC1CCN(C[C@H]2C[C@@H]2c2ccccc2)C1 (stereo partly specified) | -4% | 0.8 |
| CN1C(=O)COC12CCN(Cc1nccn1CC(F)F)CC2 | -9% | 1.35 |
| COc1ccccc1CNC(=O)[C@H]1CCCN(c2nc3c(s2)c(C)nn3-c2ccccc2)C1 | -13% | 1.68 |
| COc1cccc(CNS(C)(=O)=O)c1 | -8% | 1.15 |
| CC(C)n1nc2c(cc1=O)CN(c1ncccc1C#N)CC2 | 31% | -3.49 |
| CCc1cc(C(=O)N2C[C@H](N(C)C)C[C@H]2C(=O)O)cs1 | -2% | 0.36 |
| Cc1ncc(C(C)NC(C)c2cnn(Cc3ccccc3)c2)c(C)n1 (stereo unspecified) | 2% | -0.42 |
| CC(=O)N1CCN(C(=O)Nc2cccc(C)n2)CC1 | -5% | 0.58 |
| Cc1nc(CN)cc(N[C@H]2C[C@@H]2c2ccccc2)n1 | 2% | -0.34 |
| O=C(CN1CCCCC1)N1CCc2[nH]nc(-c3cccc(F)c3)c2C1 | -1% | 0.11 |
| Cc1ccnc(N2CC(C#N)C3(C2)C(=O)Nc2ccccc23)n1 (stereo unspecified) | 9% | -1.43 |
| O=S(=O)(c1ccccc1)N1CCOc2ccc(N3CCOCC3)cc2C1 | -1% | 0.13 |
| COc1cc(=O)n2c(c1C(=O)N(C)Cc1nonc1C)CCN(C(=O)Cc1ccc(F)cc1)CC2 | 12% | -1.47 |
| c1ccc2c(c1)C[C@H](c1nc(C3CCOCC3)n[nH]1)CO2 | 9% | -1.78 |
